Experimental data reported in the supplement of paper PMC3334620.
Whole data set: some 33,000 sequences, median “E-score (-0.5 to 0.5)” near -0.041, cut for the highest 2% near 0.37. The list shows a part of the results.

These sequences were tested against T1, Ecm22 (UniProt Q05958) (assay: PBM E-score (8-mer binding enrichment) (E-score (-0.5 to 0.5)); higher = stronger / more preferred TF binding; most listed sequences are background and not binding sites). Conditions: protein concentration: 200 nM; construct: GST-full length.
T1 sequence: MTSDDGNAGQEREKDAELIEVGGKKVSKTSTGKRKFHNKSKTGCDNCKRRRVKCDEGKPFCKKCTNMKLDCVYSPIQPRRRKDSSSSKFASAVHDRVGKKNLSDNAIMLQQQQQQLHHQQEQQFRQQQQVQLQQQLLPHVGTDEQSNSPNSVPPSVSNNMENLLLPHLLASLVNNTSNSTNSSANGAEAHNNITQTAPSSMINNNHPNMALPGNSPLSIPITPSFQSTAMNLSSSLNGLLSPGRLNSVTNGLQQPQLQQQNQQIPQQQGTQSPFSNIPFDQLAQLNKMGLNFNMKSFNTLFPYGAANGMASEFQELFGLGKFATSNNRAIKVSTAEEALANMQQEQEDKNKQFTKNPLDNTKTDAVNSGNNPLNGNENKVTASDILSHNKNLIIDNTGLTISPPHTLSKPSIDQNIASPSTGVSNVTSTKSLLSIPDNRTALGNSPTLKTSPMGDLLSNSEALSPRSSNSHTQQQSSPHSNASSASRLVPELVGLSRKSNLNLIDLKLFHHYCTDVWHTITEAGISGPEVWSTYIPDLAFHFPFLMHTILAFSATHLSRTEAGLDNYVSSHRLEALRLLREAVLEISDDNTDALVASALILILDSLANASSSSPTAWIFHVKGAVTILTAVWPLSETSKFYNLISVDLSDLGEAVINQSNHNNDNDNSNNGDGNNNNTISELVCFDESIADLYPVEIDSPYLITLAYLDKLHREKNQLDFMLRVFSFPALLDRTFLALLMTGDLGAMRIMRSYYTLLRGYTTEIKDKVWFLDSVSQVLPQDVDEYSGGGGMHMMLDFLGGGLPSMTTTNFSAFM
Outline: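 Detection of bound protein used fluorescent anti-GST, with scans normalised by masliner. The proteins were GST-tagged yeast transcription factors applied at about 100-200 nM to universal all-10-mer Agilent arrays made double-stranded by primer extension. Each ungapped eight-base word, pooled with its reverse complement, was scored with an E-score from the Universal PBM Analysis Suite.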

Sequence | PBM E-score
GTACCTAC | 0.107
ACTTTTGC | -0.0866
CTAGCGTA | -0.0308
AGACTAGC | -0.234
AAGTTGCT | -0.0881
TCCTGGAA | -0.15
GATGTATA | -0.0358
ACTACTCC | -0.00828
CCCACACC | -0.0753
GGTGTTCA | -0.138
CGAGCTGA | 0.227
AGCAGCAT | -0.0652
AGGTGACC | -0.203
ACACCAAG | -0.0985
CTGACGGA | -0.113
AATCGAGC | 0.237
ACCGACGC | 0.216
CCGCGTAC | 0.231
AACTTCTG | -0.174
CCAAGGGA | -0.0775
CACGGCGA | 0.0797
CCTTCACA | -0.13

Sequence | PBM E-score
CTATCGTC | -0.0492
CTGGCTTC | -0.114
ACGAAAAC | 0.337
AAGCGGCT | -0.0695
AAAGTCGT | 0.261
CAAAACTG | -0.155
ATCCCAAC | -0.0633
ACATGCCG | 0.137
TATGGGGA | -0.136
AAGGACGT | 0.0897
ATCGGTAC | 0.249
TAGCGCTA | 0.158
ATCATAGA | -0.0447
ATTAAACG | 0.449
CGACTGCC | 0.0232
ACAGCTCG | 0.166
GACCTTCA | -0.0961
ACAGGCGA | -0.0932
CTAGTAAA | -0.032
AAGACTAA | -0.221
TGATGGAA | -0.188
ATGTCACA | -0.135

Sequence | PBM E-score
GTTTAAAA | 0.157
AATGTGAG | -0.102
AGCAGCCG | -0.0197
AGAATGCG | 0.0703
TCAGCCAA | -0.0987
ATCTCGCA | 0.296
AAGTGACC | 0.0136
ATGTTGGC | 0.0586
CGAAGGCA | -0.0298
CCTTTGAC | -0.299
CGCGTCAC | 0.0924
CTCTTGGC | -0.271
GCCATTGA | -0.0844
ATTTCAGG | -0.0391
GAAGCTGC | -0.139
CCAACTTA | -0.115
ACCCGGAA | -0.0363
CTGAAGGC | -0.216
TATTTAGA | 0.00352
GTCTAGAA | -0.106
CATCCCCG | -0.0388
CAAAATTC | 0.214

Sequence | PBM E-score
ATGATAGC | 0.0564
AAAGCCCA | 0.0429
GAAAGTCA | 0.0984
AAGAATTA | -0.012
CCATTGTA | 0.0165
TACAAGCA | 0.0915
TGCCGACA | 0.0514
AATGCACT | -0.0341
CCCGAAAC | 0.17
ACGTATAT | 0.371
ATCTGGTC | -0.187
TGATGCAA | -0.0173
GACAAACA | -0.0747
GGGCTTCA | -0.195
CAAACGCG | 0.21
ATAGTCAG | -0.0196
AATTAACG | 0.264
GCGTTAGA | -0.108
AACGCGAC | 0.233
ATTACCTC | 0.0459
